# Experimental data taken from PubChem BioAssay (Tox21).
# Values joined by “and” are separate entries in the source; they are usually repeats but may differ in a detail not shown here. Identical values can stand only once. Inconclusive means that the source gave no clear call. Such entries were picked first, then a sample of the others. For part of these data: Where the call is inconclusive, the potency comes from a doubtful curve fit. Active and inactive are the calls of the source. Unless noted, the call rests on the fitted dose curve; in most records, active means well fitted curve in the direction sought with a large enough effect in the repeat runs; inconclusive means weak or mixed curves; inactive means no such curve, though single readings can be large; an effect the other way counts as inactive or inconclusive.
# Columns and labels:
# [1] = target: Aryl hydrocarbon receptor (Homo sapiens) (UniProt P35869); assay: qHTS assay to identify small molecule that activate the aryl hydrocarbon receptor (AhR) signaling pathway (AID 743085); further: nearly all actives have a fitted effect of over 15% in size
# Sequence of UniProt P35869 (P35869 whole entry, looked up): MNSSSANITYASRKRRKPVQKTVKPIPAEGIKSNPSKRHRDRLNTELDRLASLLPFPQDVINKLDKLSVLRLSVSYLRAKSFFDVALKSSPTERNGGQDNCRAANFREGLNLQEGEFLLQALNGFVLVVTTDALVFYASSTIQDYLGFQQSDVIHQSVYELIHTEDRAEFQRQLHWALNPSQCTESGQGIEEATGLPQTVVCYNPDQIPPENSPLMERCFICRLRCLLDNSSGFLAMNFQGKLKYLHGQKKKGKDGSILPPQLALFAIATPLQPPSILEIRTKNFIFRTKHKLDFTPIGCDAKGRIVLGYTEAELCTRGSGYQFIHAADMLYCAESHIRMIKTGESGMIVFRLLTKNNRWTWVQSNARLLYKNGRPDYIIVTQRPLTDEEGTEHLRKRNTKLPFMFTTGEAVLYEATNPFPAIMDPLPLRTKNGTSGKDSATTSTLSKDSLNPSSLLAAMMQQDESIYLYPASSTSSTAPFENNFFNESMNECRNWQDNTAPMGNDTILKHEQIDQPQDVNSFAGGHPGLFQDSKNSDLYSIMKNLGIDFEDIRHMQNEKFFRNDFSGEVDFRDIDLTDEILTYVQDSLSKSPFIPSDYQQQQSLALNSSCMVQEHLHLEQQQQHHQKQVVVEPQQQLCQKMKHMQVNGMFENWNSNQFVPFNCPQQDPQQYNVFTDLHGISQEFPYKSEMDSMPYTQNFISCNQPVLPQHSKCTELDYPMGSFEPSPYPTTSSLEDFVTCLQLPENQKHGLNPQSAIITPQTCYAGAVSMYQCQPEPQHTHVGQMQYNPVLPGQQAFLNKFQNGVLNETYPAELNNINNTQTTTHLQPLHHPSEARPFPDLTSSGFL
# Outline: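 Compounds were tested in HepG2 hepatocellular carcinoma cells harbouring a stably integrated luciferase gene under control of 20 DREs. Increased reporter signal after 24 h treatment at 37C was taken as AhR activation.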
# [2] = target: Peroxisome proliferator-activated receptor gamma (Homo sapiens) (UniProt P37231); assay: qHTS assay to identify small molecule agonists of the peroxisome proliferator-activated receptor gamma (PPARg) signaling pathway (AID 743094; active means well fitted activation curve with a large enough effect in the signal ratio in the repeat runs, not every such curve was filed as active; inconclusive means weak or mixed curves, or effect the other way; inactive means no such curve, though single readings can be large or run the other way; the % refers to the signal ratio; on activation: on the % scale 0 is the no-effect control and ±100 the full control effect); settings: HEK293H PPARg-UAS-bla, beta-lactamase FRET ratio, 17 h; activation: at 57 µM (top of the series) unless noted
# Sequence of UniProt P37231 (P37231 whole entry, looked up): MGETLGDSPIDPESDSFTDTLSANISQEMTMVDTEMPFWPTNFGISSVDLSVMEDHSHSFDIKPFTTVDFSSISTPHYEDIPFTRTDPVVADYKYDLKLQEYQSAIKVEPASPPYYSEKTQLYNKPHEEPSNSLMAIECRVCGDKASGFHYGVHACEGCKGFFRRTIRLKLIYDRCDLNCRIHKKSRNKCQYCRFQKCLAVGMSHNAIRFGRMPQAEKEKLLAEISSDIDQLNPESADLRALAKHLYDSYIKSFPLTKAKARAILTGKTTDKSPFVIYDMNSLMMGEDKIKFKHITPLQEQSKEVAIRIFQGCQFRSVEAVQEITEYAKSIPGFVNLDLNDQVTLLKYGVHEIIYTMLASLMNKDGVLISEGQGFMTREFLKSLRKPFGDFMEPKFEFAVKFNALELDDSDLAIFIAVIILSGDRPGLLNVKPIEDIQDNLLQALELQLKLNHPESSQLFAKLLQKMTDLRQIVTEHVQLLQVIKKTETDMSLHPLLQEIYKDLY
# Outline: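 Reporter activation was scored by fluorescence of cleaved LiveBLAzer B/G substrate (1 h, room temperature) in PPARg-bla HEK293H cells previously treated 17 h at 37C with DMSO-dissolved compounds.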
# [3] = target: Peroxisome proliferator-activated receptor gamma (Homo sapiens) (UniProt P37231); assay: qHTS assay to identify small molecule antagonists of the peroxisome proliferator-activated receptor gamma (PPARg) signaling pathway (AID 743191; calls by dose curve; further: nearly all actives have a fitted effect of over 30% in size; on ratio activity, negative = inhibition: on the % scale 0 is the no-effect control and ±100 the full control effect); settings: HEK293H PPARg-UAS-bla, beta-lactamase ratio, antagonist, 17 h; ratio activity, negative = inhibition: at 62.6 µM (top of the series) unless noted
# Outline: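 GeneBLAzer PPARg UAS-bla HEK293H cells carrying a UAS-driven beta-lactamase reporter were plated at 3000 cells/well, preincubated 5 h at 37C, then given compound for 17 h at 37C; LiveBLAzer B/G FRET substrate was read after 1 h at room temperature.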
# [4] = qHTS assay to identify small molecule antagonists of the peroxisome proliferator-activated receptor delta (PPARd) signaling pathway - cell viability counter screen (AID 743213); settings: PPARd-bla HEK293H viability, CellTiter-Glo luminescence, 17 h; viability change, negative = cytotoxic: at 62 µM (top of the series) unless noted; further: nearly all actives have a fitted effect of over 50% in size
# Outline: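 Viability counter-screen, qHTS format: PPARd-bla HEK293H, L165041 300 nM final, 17 h compound exposure at 37 C, CellTiter-Glo luminescence after 30 min RT.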
# [5] = target: Peroxisome proliferator-activated receptor delta (Homo sapiens) (UniProt Q03181); assay: qHTS assay to identify small molecule antagonists of the peroxisome proliferator-activated receptor delta (PPARd) signaling pathway (AID 743215; active means well fitted inhibition curve with a large enough effect in the signal ratio in the repeat runs, not every such curve was filed as active; inconclusive means weak or mixed curves, or effect the other way; inactive means no such curve, though single readings can be large or run the other way; the % refers to the signal ratio;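 further: cells stimulated with agonist L165041 at 300 nM final during compound exposure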; on ratio activity, negative = inhibition: on the % scale 0 is the no-effect control and ±100 the full control effect); settings: HEK293H PPARd-UAS-bla, beta-lactamase FRET ratio, antagonist, 17 h; ratio activity, negative = inhibition: at 62 µM (top of the series) unless noted
# Sequence of UniProt Q03181 (Q03181 whole entry, looked up): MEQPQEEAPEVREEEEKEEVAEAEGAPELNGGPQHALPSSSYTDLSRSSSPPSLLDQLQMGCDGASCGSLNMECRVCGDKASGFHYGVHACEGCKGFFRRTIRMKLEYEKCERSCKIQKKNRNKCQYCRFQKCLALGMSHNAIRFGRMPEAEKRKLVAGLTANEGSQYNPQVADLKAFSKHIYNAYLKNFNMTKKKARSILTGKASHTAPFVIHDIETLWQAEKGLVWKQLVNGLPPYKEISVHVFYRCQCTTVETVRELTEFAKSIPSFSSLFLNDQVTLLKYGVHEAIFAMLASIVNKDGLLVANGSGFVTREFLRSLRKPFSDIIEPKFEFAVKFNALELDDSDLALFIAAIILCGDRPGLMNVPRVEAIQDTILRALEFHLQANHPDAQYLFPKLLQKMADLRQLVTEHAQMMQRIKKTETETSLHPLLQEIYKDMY
# Outline: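 Plated HEK293H PPARd-bla cells rested 5 h at 37 C and 5% CO2. Compound, then agonist L165041 at 300 nM final, was added; 17 h at 37 C followed. Substrate loading, 2 h room temperature, fluorescence measured.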
# [6] = target: Bile acid receptor (Homo sapiens) (UniProt Q96RI1); assay: qHTS assay to identify small molecule antagonists of the farnesoid-X-receptor (FXR) signaling pathway (AID 743217; active means well fitted inhibition curve with a large enough effect in the signal ratio in the repeat runs, not every such curve was filed as active; inconclusive means weak or mixed curves, or effect the other way; inactive means no such curve, though single readings can be large or run the other way; the % refers to the signal ratio; on activity change, negative = inhibition: on the % scale 0 is the no-effect control and ±100 the full control effect); settings: HEK293T FXR-UAS-bla, beta-lactamase ratio, CDCA-stimulated, 16 h; activity change, negative = inhibition: at 62.6 µM (top of the series) unless noted
# Sequence of UniProt Q96RI1 (Q96RI1 whole entry, looked up): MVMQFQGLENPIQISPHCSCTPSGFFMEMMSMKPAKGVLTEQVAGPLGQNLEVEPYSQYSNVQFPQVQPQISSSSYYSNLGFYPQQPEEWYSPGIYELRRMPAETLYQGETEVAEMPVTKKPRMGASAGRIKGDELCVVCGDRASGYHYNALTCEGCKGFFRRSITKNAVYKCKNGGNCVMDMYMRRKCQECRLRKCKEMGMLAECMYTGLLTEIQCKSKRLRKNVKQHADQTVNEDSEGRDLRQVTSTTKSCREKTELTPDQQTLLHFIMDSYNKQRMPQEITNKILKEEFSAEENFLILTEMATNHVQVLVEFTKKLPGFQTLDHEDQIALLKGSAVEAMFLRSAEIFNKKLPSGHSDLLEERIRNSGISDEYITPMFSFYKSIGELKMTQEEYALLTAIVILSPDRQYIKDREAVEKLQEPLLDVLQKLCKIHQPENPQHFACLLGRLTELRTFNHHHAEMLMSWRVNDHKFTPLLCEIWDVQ
# Outline: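 Screen of the Tox21 10K library in quantitative HTS format using FXR-UAS-bla HEK 293T reporter cells. Agonist chenodeoxycholic acid, 50 uM final, added with compounds; 16 h incubation at 37 °C; beta-lactamase FRET fluorescence measured.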
# [7] = qHTS assay for small molecule agonists of the antioxidant response element (ARE) signaling pathway (AID 743202; active means well fitted activation curve with a large enough effect in the signal ratio in the repeat runs, not every such curve was filed as active; inconclusive means weak or mixed curves, or effect the other way; inactive means no such curve, though single readings can be large or run the other way; the % refers to the signal ratio); settings: HepG2 ARE-bla reporter, beta-lactamase FRET, 16 h; activation: at 73.3 µM (top of the series) unless noted
# Outline: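 Steps: seed ARE-bla HepG2 cells (2,000/well); incubate 5 h at 37 C; add compounds by pin tool; incubate 16 h at 37 C; add FRET substrate; read fluorescence after 2 h at RT.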
# [8] = qHTS assay to identify small molecule agonists of the farnesoid-X-receptor (FXR) signaling pathway - cell viability counter screen (AID 743218); settings: FXR-bla HEK293T viability, CellTiter-Glo luminescence, 16 h; viability change, negative = cytotoxic: at 62.6 µM (top of the series) unless noted; further: nearly all actives have a fitted effect of over 45% in size
# Outline: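 Viability of FXR-bla HEK 293T cells is measured by ATP-based CellTiter-Glo luminescence following 16 h compound treatment at 37 C and a prior 2 h room-temperature beta-lactamase substrate step.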
# [9] = target: Vitamin D3 receptor (Homo sapiens) (UniProt P11473); assay: qHTS assay to identify small molecule agonists of the vitamin D receptor (VDR) signaling pathway (AID 743222; calls by dose curve); settings: HEK293T VDR-UAS-bla, beta-lactamase FRET ratio, 16 h; activation: at 63.5 µM (top of the series) unless noted
# Sequence of UniProt P11473 (P11473 whole entry, looked up): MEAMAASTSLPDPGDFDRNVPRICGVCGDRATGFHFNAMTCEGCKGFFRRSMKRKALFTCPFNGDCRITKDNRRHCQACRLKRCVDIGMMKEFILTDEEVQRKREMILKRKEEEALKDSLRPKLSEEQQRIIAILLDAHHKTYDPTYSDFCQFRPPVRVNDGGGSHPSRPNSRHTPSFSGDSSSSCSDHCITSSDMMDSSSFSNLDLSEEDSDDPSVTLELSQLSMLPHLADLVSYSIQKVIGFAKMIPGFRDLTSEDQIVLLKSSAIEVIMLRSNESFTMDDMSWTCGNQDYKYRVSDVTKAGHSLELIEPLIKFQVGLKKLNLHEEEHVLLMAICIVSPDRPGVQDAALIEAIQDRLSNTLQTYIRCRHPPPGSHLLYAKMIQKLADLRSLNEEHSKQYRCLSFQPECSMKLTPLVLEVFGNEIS
# Outline: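 Fluorescence from cleaved LiveBLAzer B/G FRET substrate served as readout. VDR-bla cells had been treated 16 h at 37C with test compounds in DMSO, following a 4 h settling period, and substrate was loaded for 2 h at RT.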
# [10] = target: Vitamin D3 receptor (Homo sapiens) (UniProt P11473); assay: qHTS assay to identify small molecule antagonists of the vitamin D receptor (VDR) signaling pathway (AID 743223; active means well fitted inhibition curve with a large enough effect in the signal ratio in the repeat runs, not every such curve was filed as active; inconclusive means weak or mixed curves, or effect the other way; inactive means no such curve, though single readings can be large or run the other way; the % refers to the signal ratio); settings: VDR-UAS-bla HEK293T, beta-lactamase FRET ratio, 16 h; activity change, negative = inhibition: at 61 µM (top of the series) unless noted
# Outline: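 Cells carrying a VDR-driven beta-lactamase reporter (VDR-bla) were co-treated with compound and 3 nM final 1alpha,25-dihydroxyvitamin D3 for 16 h at 37C; reporter activity was measured as FRET substrate fluorescence after 2 h at room temperature.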
# [11] = qHTS assay to identify small molecule that activate the aryl hydrocarbon receptor (AhR) signaling pathway - cell viability counter screen (AID 743086); further: nearly all actives have a fitted effect of over 45% in size
# Outline: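 HepG2-AhR-luc (HG2L7.5c1) cells, 4000/well, were preincubated 5 h at 37C, exposed to compound in qHTS format for 24 hr at 37C, then given CellTiter-Fluor for 30 min; viability was read as fluorescence in the reporter wells.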
# [12] = qHTS assay to identify small molecule antagonists of the peroxisome proliferator-activated receptor gamma (PPARg) signaling pathway - cell viability counter screen (AID 743194); settings: PPARg-bla HEK293H viability, CellTiter-Glo luminescence, 17 h, co-treated with 50 nM rosiglitazone; activity change, negative = cytotoxicity: at 62.6 µM (top of the series); further: nearly all actives have a fitted effect of over 55% in size
# Outline: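 PPARg-UAS-bla HEK293H cells were plated, rested 5 h at 37 C, then treated with compounds plus rosiglitazone (50 nM final) for 17 h at 37 C; viability was then read by CellTiter-Glo luminescence after 30 min at room temperature.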
# [13] = qHTS assay for small molecule agonists of the antioxidant response element (ARE) signaling pathway - cell viability counter screen (AID 743203; calls by dose curve; further: nearly all actives have a fitted effect of over 55% in size); settings: ARE-bla HepG2 viability, CellTiter-Glo luminescence, 16 h; viability change, negative = cytotoxic: at 73.3 µM (top of the series)
# Outline: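 Viability counter screen: stably transfected ARE-bla HepG2 line, 16 hrs compound exposure at 37C/5% CO2, ATP-based CellTiter-Glo luminescence measured in the reporter wells.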
# [14] = qHTS assay for small molecule activators of the heat shock response signaling pathway (AID 743210; active means well fitted activation curve with a large enough effect in the signal ratio in the repeat runs, with a control signal flat, not every such curve was filed as active; inconclusive means weak or mixed curves; the % refers to the signal ratio); settings: HeLa HSE-bla reporter, beta-lactamase ratio, 5 h; activation: at 62.6 µM (top of the series)
# Outline: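 Activation of heat shock element-controlled beta-lactamase expression is measured in HeLa cells by LiveBLAzer FRET fluorescence, with compound exposure lasting 5 h at 37 C and substrate loading 2.5 h at room temperature.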
# [15] = target: Peroxisome proliferator-activated receptor delta (Homo sapiens) (UniProt Q03181); assay: qHTS assay to identify small molecule agonists of the peroxisome proliferator-activated receptor delta (PPARd) signaling pathway (AID 743212; calls by dose curve); settings: HEK293H PPARd-UAS-bla, beta-lactamase FRET ratio, 17 h; activation: at 62.6 µM (top of the series) unless noted
# Outline: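 Cells expressing a UAS-driven beta-lactamase reporter (PPARd-bla HEK293H) were given test compounds after a 5 h settle and kept at 37 C. Reporter activity was then measured as FRET fluorescence using LiveBLAzer B/G substrate.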
# [16] = target: Bile acid receptor (Homo sapiens) (UniProt Q96RI1); assay: qHTS assay to identify small molecule agonists of the farnesoid-X-receptor (FXR) signaling pathway (AID 743220; active means well fitted activation curve with a large enough effect in the signal ratio in the repeat runs, not every such curve was filed as active; inconclusive means weak or mixed curves, or effect the other way; the % refers to the signal ratio); settings: HEK293T FXR-UAS-bla, beta-lactamase FRET ratio, 16 h; activation: at 62.6 µM (top of the series) unless noted
# Outline: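 FXR-UAS-bla HEK 293T cells carrying a UAS-driven beta-lactamase reporter were plated for 5 h at 37C/5% CO2, then exposed to DMSO-dissolved Tox21 10K compounds for 16 h at 37C. A LiveBLAzer B/G FRET substrate was loaded for 2 h at room temperature before fluorescence reading.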
# [17] = qHTS assay to identify aromatase inhibitors - cell viability counter screen (AID 743084); settings: MCF-7 aro ERE viability, CellTiter-Fluor, 24 h; activity change, negative = cytotoxicity: at 70.3 µM (top of the series);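 further: cells stimulated with testosterone during compound exposure; nearly all actives have a fitted effect of over 55% in size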
# Potency means the concentration at half of the fitted maximal effect; tags describe the fitted curve by direction and shape or compound fluorescence and quenching.
smiles,measurement,setting,value
O=C(O)CNc1ccccc1,Potency,[1],inconclusive: 54.5 µM [activator]
same,Potency,[2],inactive
same,Potency,[3],inactive
same,Potency,[4],"inconclusive: 6.92 µM [cytotoxic, full curve, poor fit]"
same,Potency,[5],"inconclusive: 19.5 µM [fluorescent, partial curve, poor fit]"
same,"activity change, negative = inhibition",[6],inconclusive: -6.04%
CCOc1ccc(Cc2nccc3cc(OCC)c(OCC)cc23)cc1OCC,Potency,[1],"inconclusive: 11.4 µM [activator, partial curve, poor fit]"
same,Potency,[2],inactive
same,"ratio activity, negative = inhibition",[3],inconclusive: -17.5%
same,Potency,[7],inconclusive: 26.6 µM [partial curve]
same,"ratio activity, negative = inhibition",[5],inconclusive: 1.59%
same,Potency,[8],"inconclusive: 0.0944 µM [rising, partial curve, poor fit]"
same,Potency,[9],inactive
same,"activity change, negative = inhibition",[10],inconclusive: 6.39%
c1cc(C(c2ccc(OCC3CO3)cc2)c2ccc(OCC3CO3)cc2)ccc1OCC1CO1 (centres undefined),Potency,[1],inactive
same,Potency,[11],"inconclusive: 68.6 µM [falling, single point]"
same,Potency,[2],"inconclusive: 21.9 µM [rising, full curve]"
same,Potency,[3],inconclusive: 21.9 µM
same,Potency,[12],active: 21.9 µM
same,Potency,[7],"inconclusive: 77 µM [rising, single point]"
same,Potency,[13],"inconclusive: 43.3 µM [cytotoxic, partial curve]"
same,Potency,[14],inconclusive: 28.6 µM
same,Potency,[15],"inconclusive: 27.5 µM [rising, partial curve]"
same,Potency,[5],"inconclusive: 43.6 µM [rising, partial curve]"
same,Potency,[6],"inconclusive: 49 µM [rising, partial curve]"
same,Potency,[8],inconclusive: 54.9 µM [cytotoxic]
same,Potency,[16],"inconclusive: 43.6 µM [fluorescent, partial curve]"
same,Potency,[9],"inconclusive: 15.5 µM [rising, full curve]"
same,Potency,[10],"inconclusive: 49 µM [rising, partial curve]"
C=C(C)C(=O)OCC(C)(C)COC(=O)C(=C)C,Potency,[17],inactive
same,Potency,[7],inactive
same,Potency,[14],inactive
same,activation,[9],inconclusive: -2.56%
same,"activity change, negative = inhibition",[10],inconclusive: 14.4%
O=C(Oc1ccccc1)c1ccccc1O,Potency,[17],"inconclusive: 77.3 µM [cytotoxic, partial curve, poor fit] and inconclusive: 68.6 µM [cytotoxic, single point]"
same,activation,[7],inconclusive: 0.0279%
same,Potency,[14],"inactive and inconclusive: 54.9 µM [activator, partial curve]"
same,Potency,[4],inactive
same,Potency,[8],inactive
